Experiment [1] addresses T1, beta-catenin/TCF4 (Homo sapiens, UniProt P35222).
T1 construct: expressed in transfected cells; host or cells: HEK293 cells
T1 sequence (P35222 1-781): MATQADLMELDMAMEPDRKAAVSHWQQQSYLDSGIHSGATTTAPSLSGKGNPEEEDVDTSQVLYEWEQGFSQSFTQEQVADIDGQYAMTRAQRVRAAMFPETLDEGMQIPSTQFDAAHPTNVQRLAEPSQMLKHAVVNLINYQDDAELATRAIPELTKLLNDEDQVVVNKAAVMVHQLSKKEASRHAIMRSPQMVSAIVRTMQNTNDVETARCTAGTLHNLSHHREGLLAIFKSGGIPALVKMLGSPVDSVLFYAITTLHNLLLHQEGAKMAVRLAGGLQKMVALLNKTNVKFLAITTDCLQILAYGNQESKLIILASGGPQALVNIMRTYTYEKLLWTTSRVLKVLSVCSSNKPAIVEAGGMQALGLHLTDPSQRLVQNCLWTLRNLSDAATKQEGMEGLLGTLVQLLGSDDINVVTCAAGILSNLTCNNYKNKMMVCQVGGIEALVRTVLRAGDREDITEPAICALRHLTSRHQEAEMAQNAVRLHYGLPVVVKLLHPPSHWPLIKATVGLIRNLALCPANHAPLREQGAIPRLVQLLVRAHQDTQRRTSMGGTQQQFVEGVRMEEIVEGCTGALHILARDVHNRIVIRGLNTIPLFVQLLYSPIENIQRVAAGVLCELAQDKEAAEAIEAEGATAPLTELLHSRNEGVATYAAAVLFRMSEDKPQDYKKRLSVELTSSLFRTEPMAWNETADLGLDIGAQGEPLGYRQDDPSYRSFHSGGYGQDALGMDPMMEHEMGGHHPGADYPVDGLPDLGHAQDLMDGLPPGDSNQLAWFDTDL
The experiment can be described thus: Nano-BRET target engagement assay (HEK293 cells). Type of experiment: cell-based. (BRET reads energy transfer from a luciferase to a nearby fluorophore.)

The target in experiment [2] is T2, beta-catenin (Homo sapiens, UniProt P35222).
T2 sequence (P35222 1-781): T1 sequence (P35222 1-781)
The experiment can be described thus: fluorescence polarization binding to beta-catenin. The following applies: beta-Catenin FP IC50 (nM).

Each structure is given as a SMILES string. Some results are limits rather than exact numbers.

With `CC(=O)N1CCC[C@@]1(C)C(=O)N[C@@H](CC(=O)O)C(=O)N[C@@H](CC(C)(C)C)C(=O)N[C@]1(C)CCCCCCCOC(=O)N2CC[C@@]3(C2)NC(=O)[C@H](CCCCNC(=O)CC[C@@H](C(=O)N[C@@H](C)C(N)=O)NC(=O)[C@H](Cc2csc4ccccc24)NC(=O)[C@H](Cc2ccsc2)NC3=O)NC(=O)[C@H](Cc2ccccc2)NC(=O)[C@H](C)NC(=O)C(C)(C)NC(=O)[C@H](CN(CC(=O)O)CC(F)(F)F)NC(=O)[C@H](CC(=O)O)NC1=O` (relative stereo) [I-239, Ac-MePro-Asp-Npg-R4-Asp-TfeGA-Aib-Ala-Phe-Lys*3-PyrS2-3Thi-BztA-GlnR*3-Ala-NH2], the IC50 (in general, the concentration at which inhibition is half-maximal) was > 10000 nM in experiment [1] and 200 to 750 nM in experiment [2].

On to `CC(=O)N1CCC[C@@]1(C)C(=O)N[C@@H](CC(=O)O)C(=O)N[C@@H](CC(C)(C)C)C(=O)N[C@]1(C)CCCCCCCCCOC(=O)N2CC[C@@]3(C2)NC(=O)[C@H](CCCCNC(=O)CC[C@@H](C(=O)N[C@@H](C)C(N)=O)NC(=O)[C@H](Cc2csc4ccccc24)NC(=O)[C@H](Cc2ccsc2)NC3=O)NC(=O)[C@H](Cc2ccccc2)NC(=O)[C@H](C)NC(=O)C(C)(C)NC(=O)[C@H](CN(CC(=O)O)CC(F)(F)F)NC(=O)[C@H](CC(=O)O)NC1=O` (relative stereo) [I-241, Ac-MePro-Asp-Npg-R6-Asp-TfeGA-Aib-Ala-Phe-Lys*3-PyrS2-3Thi-BztA-GlnR*3-Ala-NH2], for which the IC50 was > 10000 nM in experiment [1] and 200 to 750 nM in experiment [2].

Take `C[C@H](NC(=O)[C@@H]1CCC(=O)NCCCC[C@@H]2NC(=O)[C@H](Cc3ccccc3)NC(=O)[C@H](C)NC(=O)C(C)(C)NC(=O)[C@H](Cc3cccc(C(=O)O)c3)NC(=O)[C@H](CC(=O)O)NC(=O)[C@](C)(NC(=O)[C@@H]3CCCCCCC(=O)N4CCC[C@@]4(C)C(=O)N[C@@H](CC(=O)O)C(=O)N3)CCCCCCCCOC(=O)N3CC[C@@](C3)(NC2=O)C(=O)N[C@@H](Cc2ccsc2)C(=O)N[C@@H](Cc2csc3ccccc23)C(=O)N1)C(N)=O` (relative stereo) [I-426, 5hexenyl-MePro-Asp-AllylGly-R5-Asp-3COOHF-Aib-Ala-Phe-Lys*3-PyrS2-3Thi-BztA-GlnR*3-Ala-NH2]: the values for the IC50 in experiment [1] and in experiment [2] were > 10000 nM and < 50 nM, respectively.

On to `CC(=O)N1CCC[C@@]1(C)C(=O)N[C@@H](CC(=O)O)C(=O)N[C@@H](CC(C)(C)C)C(=O)N[C@]1(C)CCCCCCCCCOC(=O)N2CC[C@@]3(C2)NC(=O)[C@H](CCCCNC(=O)CC[C@@H](C(=O)N[C@@H](C)C(N)=O)NC(=O)[C@H](Cc2csc4ccccc24)NC(=O)[C@H](Cc2ccsc2)NC3=O)NC(=O)[C@H](Cc2ccccc2)NC(=O)[C@H](C)NC(=O)C(C)(C)NC(=O)[C@H](Cc2cccc(C(=O)O)c2)NC(=O)[C@H](CC(=O)O)NC1=O` (relative stereo) [I-235, Ac-MePro-Asp-Npg-R6-Asp-3COOHF-Aib-Ala-Phe-Lys*3-PyrS2-3Thi-BztA-GlnR*3-Ala-NH2], for which the IC50 was > 10000 nM in experiment [1] and < 50 nM in experiment [2].

With `C[C@H](NC(=O)[C@@H]1CCC(=O)NCCCC[C@@H]2NC(=O)[C@H](Cc3ccccc3)NC(=O)[C@H](C)NC(=O)C(C)(C)NC(=O)[C@H](Cc3cccc(C(=O)O)c3)NC(=O)[C@H](CC(=O)O)NC(=O)[C@](C)(NC(=O)[C@@H]3CC=CCCCC(=O)N4CCC[C@@]4(C)C(=O)N[C@@H](CC(=O)O)C(=O)N3)CCCC=CCCCOC(=O)N3CC[C@@](C3)(NC2=O)C(=O)N[C@@H](Cc2ccsc2)C(=O)N[C@@H](Cc2csc3ccccc23)C(=O)N1)C(N)=O` (single isomer, unassigned) [I-429, 5hexenyl-MePro-Asp-AllylGly-R5-Asp-3COOHF-Aib-Ala-Phe-Lys*3-PyrS2-3Thi-BztA-GlnR*3-Ala-NH2], the IC50 in experiment [1] is > 10000 nM; in experiment [2], < 50 nM.

Regarding `CC(=O)N1CCC[C@@]1(C)C(=O)N[C@@H](CC(=O)O)C(=O)N[C@@H](CC(C)(C)C)C(=O)N[C@]1(C)CCCCCCCOC(=O)N2CC[C@@]3(C2)NC(=O)[C@H](CCCCNC(=O)CC[C@@H](C(=O)N[C@@H](C)C(N)=O)NC(=O)[C@H](Cc2csc4ccccc24)NC(=O)[C@H](Cc2ccsc2)NC3=O)NC(=O)[C@H](Cc2ccccc2)NC(=O)[C@H](C)NC(=O)C(C)(C)NC(=O)[C@H](Cc2cccc(C(=O)O)c2)NC(=O)[C@H](CC(=O)O)NC1=O` (relative stereo) [I-233, Ac-MePro-Asp-Npg-R4-Asp-3COOHF-Aib-Ala-Phe-Lys*3-PyrS2-3Thi-BztA-GlnR*3-Ala-NH2], the IC50 in experiment [1] is > 10000 nM; in experiment [2], < 50 nM.

The values are drawn from patent US20260207704A1, “STAPLED PEPTIDES AND METHODS THEREOF” (priority 2022, published 2026).
